{
  "source": "patent US9352006B2",
  "about": "(priority 2010, dated 2016)",
  "test_system": "B16-OVA melanoma lung metastases",
  "settings": "mouse, in vivo",
  "excerpt": "The B16 tumor cell line (ATCC CRL-6475™) is a C57BL/6-derived melanoma cell line with low immunogenicity. The ovalbumin (OVA)-expressing B16 tumor line used is a stable OVA-transfected clone in order to track tumor antigen specific T cell responses in vivo. TC-1 was derived from the primary lung epithelial cells of C57BL/6. The HPV E6/E7-expressing TC-1 tumor cells were generated to test the efficacy of various E6/E7-specific vaccines. To establish a tumor model of metastatic lung cancer and liver cancer, C57B1/6 mice were challenged with 3×10^5 tumor cells intravenously or implanted with 7×10^4 tumor cells intrahepatically.\nIn the intrahepatic OVA-B16/C57BL/6 tumor model, when tumors reached the size of 5×5 mm^2 or, for the OVA-B16 lung metastatic tumor model, in mice with existing tumors, 5×10^6 MDSCs loaded with nanoparticles were adoptively transferred into these tumor bearing mice. Survival of test mice was determined. For some experiments, mice were sacrificed after adoptive transfer of MDSC after 14 days. The proliferation of purified splenic T cells and lung lymphocytes in response to OT-I OVA peptide, OT-II OVA peptide or OVA protein (5 mg/mL) in the presence of irradiated naïve splenocytes was assessed. For sunitinib malate ((Sutent, Pfizer)) treatment, 0.015 mg/day was given daily for 28 days as clinical protocol. The TC-1 tumor model used the same protocol. […]",
  "data": [
    {"smiles": "CCN(CC)CCNC(=O)c1c(C)[nH]c(/C=C2\\C(=O)Nc3ccc(F)cc32)c1C", "note": "[sunitinib malate]", "values": [
      {"measurement": "IFNγ production in metastatic lung lymphocytes", "value": "significantly increased IFNγ production"}
    ]}
  ]
}
